# In all, about 310,000 compounds went through this assay and about 2,200 (0.71%) showed an effect of 50% or more. Effects have a minus sign here. This is one part of the list.
# Biological target: human ether-à-go-go-related gene (hERG) potassium channel (human, UniProt Q12809)
# Test: primary screen, population patch clamp on CHO cells stably expressing hERG
# Chain of human ether-à-go-go-related gene (hERG) potassium channel (Q12809 whole entry, looked up): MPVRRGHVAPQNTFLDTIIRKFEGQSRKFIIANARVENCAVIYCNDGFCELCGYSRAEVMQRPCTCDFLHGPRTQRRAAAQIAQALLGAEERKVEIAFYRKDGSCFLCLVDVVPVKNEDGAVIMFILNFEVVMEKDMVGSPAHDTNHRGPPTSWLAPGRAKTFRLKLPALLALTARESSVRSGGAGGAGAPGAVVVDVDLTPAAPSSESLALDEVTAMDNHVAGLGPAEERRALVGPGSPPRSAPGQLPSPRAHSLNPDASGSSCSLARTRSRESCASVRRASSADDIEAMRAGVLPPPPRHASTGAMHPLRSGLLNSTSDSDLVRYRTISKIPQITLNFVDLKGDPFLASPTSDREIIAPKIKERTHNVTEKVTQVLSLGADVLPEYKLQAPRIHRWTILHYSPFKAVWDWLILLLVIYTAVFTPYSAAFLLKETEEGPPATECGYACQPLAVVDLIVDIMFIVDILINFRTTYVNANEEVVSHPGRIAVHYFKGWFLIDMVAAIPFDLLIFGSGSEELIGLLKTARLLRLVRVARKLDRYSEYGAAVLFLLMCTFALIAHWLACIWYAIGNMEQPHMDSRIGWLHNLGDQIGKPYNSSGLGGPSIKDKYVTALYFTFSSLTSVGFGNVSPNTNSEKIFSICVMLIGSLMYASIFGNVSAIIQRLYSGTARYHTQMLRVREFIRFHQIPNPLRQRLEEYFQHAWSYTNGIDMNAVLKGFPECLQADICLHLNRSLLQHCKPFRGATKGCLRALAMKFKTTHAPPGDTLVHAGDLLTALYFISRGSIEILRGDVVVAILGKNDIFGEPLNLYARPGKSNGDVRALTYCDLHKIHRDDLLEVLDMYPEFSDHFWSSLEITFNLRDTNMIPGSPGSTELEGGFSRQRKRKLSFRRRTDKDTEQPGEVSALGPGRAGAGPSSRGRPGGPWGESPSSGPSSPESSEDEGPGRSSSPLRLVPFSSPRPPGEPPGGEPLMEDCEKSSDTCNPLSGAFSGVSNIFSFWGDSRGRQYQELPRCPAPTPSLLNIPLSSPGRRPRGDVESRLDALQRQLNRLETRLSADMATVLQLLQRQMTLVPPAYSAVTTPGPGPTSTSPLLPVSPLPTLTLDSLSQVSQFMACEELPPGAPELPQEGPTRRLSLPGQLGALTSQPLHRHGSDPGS
row,SMILES,"hERG current change (%, negative = inhibition) at 1uM [%]"
1,O=C(Nc1ccccc1N1CCCC1)c1ccc(Cl)c(S(=O)(=O)N2CCOCC2)c1,7.53
2,O=c1[nH]cnc2c1cnn2Cc1ccccc1,20.3
3,COc1ccc([N+](=O)[O-])cc1NC(=O)CCN1CCN(C)CC1,16.9
4,COC(=O)CC1NCCc2cc(OC)c(OC)cc21 (stereo not drawn),5.12
5,COCCNC(=O)CCSCc1ccccc1F,-0.531
6,Cc1cc(C)nc(NC(=O)c2ccc(COc3ccccc3Cl)cc2)c1,22.7
7,COCCNC(=O)c1ccc2c(c1)NC(=O)CS2,11.2
8,COc1cccc(NC(=O)Nc2cc(C)ccc2F)c1,-8.17
9,O=C(COc1ccccc1Cl)NNC(=O)c1cc(S(=O)(=O)N2CCOCC2)ccc1N1CCCC1,7.32
10,COc1ccc(-c2coc3c(C)c4oc(=O)c(CCC(=O)O)c(C)c4cc23)cc1,6.19
11,O=C(CSc1ccsc1[N+](=O)[O-])NCCc1ccc(Cl)cc1,19.4
12,COc1ccc(Cl)cc1NC(=O)CN(C)CC(=O)Nc1ccc(S(N)(=O)=O)cc1,14
13,CN(C)C=NC1=NN(c2cccc(C(F)(F)F)c2)CC1,2.4
14,O=C(CSc1cn(CCNC(=O)c2ccccc2)c2ccccc12)NCC1CCCO1 (stereo not drawn),6.2
15,NS(=O)(=O)c1ccc(CNC(=O)CNC(=O)Cc2ccccc2)cc1,17.7
16,CCOC(=O)NC(=O)CSc1nc(C)cc(C)c1C#N,2.62
17,CCOC(=O)CN(c1ccccn1)S(=O)(=O)c1ccc(OC)cc1,12.1
18,CC(=O)N1CCCc2cc(S(=O)(=O)N3CCCC(C(=O)N4CCN(c5cccc(Cl)c5)CC4)C3)ccc21 (stereo not drawn),12.6
19,Cc1cccc(NC(=O)c2ccc(S(=O)(=O)N3CCCC3)cc2)c1C,12.4
20,CC1(CC(=O)N/N=C/c2ccc(-c3ccc(Cl)cc3)o2)OCCO1,11
21,O=C1CCc2cc(S(=O)(=O)NCc3ccccc3Cl)ccc2N1,-4.94
22,Cc1ccc(C(=O)n2c(-c3ccccc3)cnc2SCC(=O)Nc2ccc(C)cc2C)cc1,24.6

row,SMILES,"hERG current change (%, negative = inhibition) at 1uM [%]"
1,O=[N+]([O-])c1cccc(/C=C/C=N/Nc2nc(N3CCCCC3)nc(N3CCCCC3)n2)c1,13.9
2,CC(=O)c1c(O)cc(=O)oc1-c1ccc(C)cc1,13.5
3,Cc1cc2nc(SCCOC(=O)Nc3cccc(Cl)c3)nc(C)c2cc1C,-0.799
4,c1ccc(CCSc2nccn2-c2ccccc2)cc1,3.03
5,CC(=O)Nc1ccc(OCC(O)Cn2cccn2)cc1 (stereo not drawn),14
6,CCCNC(=O)c1oc2ccc3c(c2c1C)C=CC(C)(C)O3,12
7,COc1ccc(C)cc1Nc1n[n+](C)c(-c2ccc(O)cc2O)s1.[Cl-],24.9
8,CN(c1ccc(C(=O)NC2CCCCC2)cc1)S(=O)(=O)c1ccccc1,10.2
9,CC(C)c1ccc(NC(=O)N2CCN(S(=O)(=O)c3ccccc3)CC2)cc1,4.91
10,Cn1nnnc1SCC(=O)Nc1ccc(C(=O)N2CCN(Cc3ccccc3F)CC2)cc1,18.3
11,C#CCOCCOCCOCCNc1nc(N2CCN(C(=O)[C@H]([C@@H](C)CC)n3cc([C@@H](N)Cc4ccc(O)cc4)nn3)CC2)nc(N2CCN(C(=O)[C@H](CCCCN)n3cc([C@@H](N)C(C)CC)nn3)CC2)n1.Cl (stereo partly drawn),8.74
12,O=C(c1ccc(Cl)c([N+](=O)[O-])c1)N1CCN(C(=O)c2ccco2)CC1,-19.5
13,NS(=O)(=O)c1ccc(NC(=S)N2CCN(Cc3ccc(Cl)c(Cl)c3)CC2)cc1,9.4
14,Cc1cnc(C(=O)N2CCc3c([nH]c4ccccc34)C2c2ccc(F)cc2)cn1 (stereo not drawn),-1.15
15,CCN(C(=S)Nc1cccc(C)c1)c1ccccc1,23.9
16,Cc1cc(-c2cc(-c3ccc(Cl)cc3)on2)nc(NC2CCCC2)n1,5.86
17,CC(=O)Oc1ccc2c(C)cc(=O)oc2c1C(=O)c1ccccc1,17
18,CCn1cc(SCC(=O)N2CCOCC2)c2ccccc21,12.9
19,COc1cc(/C=C(\NC(C)=O)C(=O)NC(C)(C)CC(C)(C)C)ccc1OC(C)=O,2.58
20,COC(=O)CN1C(=O)[C@H]2[C@@H](/C=C/c3ccccc3)N3C(=O)CN(Cc4ccccc4)C(=O)[C@@]3(Cc3ccccc3)[C@H]2C1=O,7.66
21,COc1ccc(-c2[nH]ncc2/C=C(/C#N)C(=O)NC2CCCCC2)cc1,6.67
22,CN1CC[C@]23c4ccccc4N[C@H]1[C@]21CCN(C)[C@H]3Nc2ccccc21,11.4

row,SMILES,"hERG current change (%, negative = inhibition) at 1uM [%]"
1,Nc1cc2nc3ccccc3nc2cc1N,16.5
2,CCN(C(=O)COC(=O)CCS(=O)(=O)c1ccc(C)cc1)C1CCS(=O)(=O)C1 (stereo not drawn),9
3,O=C(O)Cc1ccc(S(=O)(=O)Nc2ccccc2C(=O)O)cc1,7.9
4,CCC/C(O)=C1\C(=O)CC(C)(C)CC1=Nc1ccccc1OC,-2.05
5,Oc1csc(Cc2nc(-c3ccc(Br)cc3)cs2)n1,12.2
6,O=C1CC2C(=O)NCCN2C(=NC(=O)c2ccc(Cl)cc2)N1 (stereo not drawn),10.3
7,CCOC(=O)c1cccc(NC(=O)CSc2nnc(-c3ccoc3C)n2CCOC)c1,4.53
8,O=C1O/C(=C/c2ccccc2)N=C1c1ccccc1,10.1
9,CC(C)(C)NC(=O)Cn1ccc(=N)c2ccccc21.Cl,6.14
10,O=C(O)C1C2C=CC(C2)C1C(=O)NCc1cccc(Cl)c1 (stereo not drawn),18.9
11,CCN(CC1COc2ccccc2O1)C(=O)CN1C(=O)NC(C)(c2ccccc2)C1=O (stereo not drawn),2.98
12,O=C(CCCCCNc1nc(=S)[nH]c2ccccc12)NCCc1c[nH]c2ccccc12,7.38
13,Cn1cnnc1SCC(=O)c1ccco1,12.5
14,COc1ccc(CNC(=O)CNS(=O)(=O)c2ccc(Cl)cc2)cc1,-2.08
15,Cc1ccc(-c2ccc(CCC(=O)O)n2NC(=O)c2ccco2)cc1,7.27
16,N#CC1(Cc2ccc([N+](=O)[O-])cc2)c2ccccc2C=CN1C(=O)c1ccccc1 (stereo not drawn),1.12
17,COc1ccc(OC)c(C(c2nnnn2Cc2ccccc2)N2CCC(C(N)=O)CC2)c1 (stereo not drawn),-2.21
18,O=C(NCCSc1ccc(Cl)cc1)c1ccco1,3.48
19,CC(C)COC(=O)CCNc1n[nH]c(=O)[nH]c1=O,3.64
20,Clc1ccccc1OCCn1cnc2ccccc21,-1.39
21,O=C(COc1cccc2c1CCN(Cc1ccc(Br)cc1)C2=O)NCc1ccco1,-17.5
22,c1cn(C23CC4CC(CC(C4)C2)C3)cn1,0.412

row,SMILES,"hERG current change (%, negative = inhibition) at 1uM [%]"
1,Cc1ccc(C(=O)NC2(C(F)(F)F)N=C3SCCN3C2=O)cc1 (stereo not drawn),15.3
2,O=C(Cc1ccccc1)Nc1ccc(N2CCOCC2)cc1,15.1
3,Cc1ccc(-n2c(SCC3CNC(=O)O3)nnc2-c2ccccc2)cc1C (stereo not drawn),0.305
4,COc1ccccc1OC(=O)c1cc2ccccc2oc1=O,8.47
5,N#C/C(=C\c1cccs1)c1nc2ccccc2[nH]1,10.7
6,c1ccc(OCCCc2nc(-c3ccncc3)no2)cc1,3.18
7,CCn1c(SCC(=O)N/N=C/C=C\c2ccccc2[N+](=O)[O-])nc2ccccc21,-4.85
8,O=C(N/N=C/c1cccnc1)c1ccc(NC(=O)c2ccc(Cl)cc2)cc1,9.62
9,CC(=O)c1ccc(NC(=O)C(NC(=O)c2ccccc2)=C(C)C)cc1,15.3
10,COc1ccc(C(C(=O)NC(C)(C)C)N(C(=O)CCC(=O)Nc2cc(C)on2)c2ccc3c(c2)OCCO3)cc1 (stereo not drawn),15.1
11,CCCOc1ccc(N2CC(C(=O)NC3=NCCS3)CC2=O)cc1 (stereo not drawn),-26
12,C/C(CC(=O)Nc1ccc(Cl)cc1Cl)=N\NC(N)=S,-10.2
13,Cn1cc(S(=O)(=O)c2ccccc2)n(C)c1=O,13.4
14,CCOc1cccc(CN2CCC(CCC(=O)NC3CC3)CC2)c1O,-47.1
15,COC(=O)C1=C(C)NC(=O)CC1c1cccc(OC)c1OC (stereo not drawn),-4.05
16,COc1cccc(-c2ncc3ccccc3c2COC(=O)c2ccc(Br)cc2)c1,15.5
17,O=C(NCc1ccc(Cl)cc1)C1CCN(c2cnccn2)CC1,-12.3
18,OCCOCCOc1ccc(-c2nn[nH]n2)cc1,11.1
19,COC(=O)C1=C(C)N(CCCC(=O)O)C(=O)NC1c1ccc(Cl)cc1 (stereo not drawn),8.03
20,O=C(Nc1ccc([N+](=O)[O-])cc1)c1cccc(S(=O)(=O)Nc2ccccn2)c1,6.15
21,COc1ccc(C2c3[nH]c4ccccc4c3C[C@H]3C(=O)N(C4CCN(Cc5ccccc5)CC4)CC(=O)N23)cc1OC (stereo partly drawn),-9.82

# — article PMC4336329 (PLoS ONE, 2015)
